# Measurements published in PubChem BioAssay AID1346428 (National Center for Advancing Translational Sciences (NCATS), 2018).
# Screen size: about 48,000 compounds; about 1,200 (2.5%) were called active. Roughly 2% stayed inconclusive and do not appear here.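 The calls were made as follows: active = activation of at least 60% and not above a set upper limit (about 1 call in 100 departs from these limits); inconclusive = activation of 40% to 60%, or above that upper limit; inactive = activation under 40%.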 This is one part of the list.
# Molecular target: Probable G-protein coupled receptor 32 (Homo sapiens) (UniProt O75388)
# Assay: qHTS for Agonists of Human Resolvin D1 Receptor DRV1; also: 0% is about no effect
# Details: CHO-K1 GPR32 beta-arrestin PathHunter luminescence, 90 min; at 76.9 µM; active compounds read high; zero percent set by DMSO-only wells
# Outline: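 Step 1: seed CHO-K1 GPR32 beta-arrestin cells, 2,500/well, overnight at 37 °C. Step 2: add compounds, 90 min at 37 °C. Step 3: detection reagent, 1 h ambient, then luminescence.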
# Sequence of UniProt O75388 (O75388 whole entry, looked up): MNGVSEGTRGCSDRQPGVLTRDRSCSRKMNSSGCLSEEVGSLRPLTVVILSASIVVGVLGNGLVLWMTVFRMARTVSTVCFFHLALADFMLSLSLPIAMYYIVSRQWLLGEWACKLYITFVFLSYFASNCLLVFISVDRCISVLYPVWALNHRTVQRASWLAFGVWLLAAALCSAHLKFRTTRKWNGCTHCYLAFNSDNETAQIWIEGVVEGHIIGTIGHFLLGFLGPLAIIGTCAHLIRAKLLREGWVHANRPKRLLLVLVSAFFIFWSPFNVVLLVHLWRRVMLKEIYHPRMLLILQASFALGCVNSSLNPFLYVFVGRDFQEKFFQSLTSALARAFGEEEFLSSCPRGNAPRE
row,Compound,activation
1,CC(C)NC(=O)C1CCC(Cn2c(=O)c3sccc3n(CC(=O)N3CCCC3)c2=O)CC1 (configuration not stated),inactive: 2.15%
2,CCN(C(=O)c1cc2c(=O)oc3ccccc3c2s1)c1ccc(C)c(C)c1,inactive: -6.49%
3,Cc1ccc(Cn2c(C(=O)O)c(CNC3CCCCC3)c3ccc(C)cc32)cc1,inactive: -13.1%
4,CCCOc1ccc(NC(=O)CC2C(=O)N(c3ccccc3)C(=O)N2Cc2ccc(F)cc2)cc1 (configuration not stated),inactive: -25.7%
5,Cc1cccc(Cn2cc(/C=C(/C#N)C(=O)Nc3cccc(Cl)c3)c3ccccc32)c1,inactive: -13%
6,CCOc1ccccc1NC(=O)Cn1c(=O)n(Cc2nc(C)no2)c(=O)c2ccccc21,inactive: -8.53%
7,Cc1ccc(C(=O)NCC(c2ccc3c(c2)OCO3)N2CCN(c3ccc(F)cc3)CC2)cc1 (configuration not stated),inactive: -31.7%
8,Cc1ccccc1C(=O)Nc1ccccc1OCc1cc(=O)n2ccccc2n1,inactive: 2.3%
9,Cc1cccc(CS(=O)(=O)Cc2ccc(C(=O)NCc3ccccc3)o2)c1,inactive: -10.1%
10,CCOc1ccc(CCNC(=O)c2c(C)oc3ncn(CC(C)C)c(=O)c23)cc1,inactive: 29.4%
11,Cc1cccc(-c2nc(S(=O)(=O)c3ccc(Cl)cc3)c(N3CCCCCC3)o2)c1,inactive: -17.2%
12,CCN(CC)c1nc2c(S(=O)(=O)c3ccccc3)nnn2c2ccc(Cl)cc12,inactive: -25.6%
13,CCOc1ccccc1CNC(=O)c1nc(-c2ccc(Cl)cc2)n2c1CCCCC2,inactive: -22.6%
14,Clc1ccccc1CNc1ncnc2c1nc1n2CCCC1,inactive: 0.267%
15,CCOc1ccc(C(=O)NCc2nnnn2-c2ccc(C)c(C)c2)cc1OCC,inactive: 0.649%
16,Cc1ncc(COP(=O)(O)O)c(C=O)c1O,inactive: 19.9%
17,CCc1nn(CC(=O)NCC(C)c2ccccc2)c(=O)c2cc3occc3n12 (configuration not stated),inactive: 5.49%
18,Cc1cc(C)c(NC(=O)CCN2C(=O)c3ccccc3Sc3ncccc32)c(C)c1,inactive: -13.3%
19,Cc1ccc(-n2c(=O)c3ccc(C(=O)NCc4ccccc4Cl)cc3n(CC(=O)Nc3cccc(Cl)c3)c2=O)cc1,inactive: -8.41%
20,Cc1nc2cc(C(=O)NCCC3=CCCCC3)ccc2n1-c1ccc(Br)cc1,inactive: -26.9%
21,CSc1nc(Nc2ccc(C)cc2C)cc(-c2ccccc2)n1,inactive: -13.6%

row,Compound,activation
1,COC(=O)c1cc2c(cc1NC(=O)c1cnn(-c3ccccc3)c1-n1cccc1)OCO2,inactive: 5.73%
2,Cc1cccc(C(=O)Nc2nnc(S(=O)(=O)N(C)Cc3ccc(Cl)cc3)s2)c1,inactive: 36.2%
3,CCCCCNC(=O)c1ccc2c(c1)ncn2-c1cccc(C)c1,inactive: 1.92%
4,O=C1COc2ccc(-c3cc(-c4ccc(Cl)cc4)c4c(n3)-c3ccccc3OC4)cc2N1,inactive: -8.77%
5,CCOC(=O)CNC(=O)CSc1cn(CC(=O)N2CCCCCC2)c2ccccc12,inactive: -10.7%
6,CN(Cc1ccccc1)C(=O)C1CCN(S(=O)(=O)c2ccc3c(c2)oc(=O)n3C)CC1,inactive: -0.643%
7,CCC1NC(=O)c2cc(S(N)(=O)=O)c(Cl)cc2N1 (configuration not stated),inactive: 5.77%
8,Cc1cccc(Cn2c(=O)n(CC3CCC(C(=O)NC(C)C)CC3)c(=O)c3sccc32)c1 (configuration not stated),inactive: 15%
9,COc1ccc(NC(=O)CN2C(=O)C(C)(C)c3ccccc32)cc1Cl,active: 103%
10,CSc1ccc(CCNC(=O)C2=C(C)C(=O)OC23CCCCC3)cc1,inactive: -15.1%
11,COc1cc(CNC(=O)c2sc3ncccc3c2-n2cccc2)cc(OC)c1OC,inactive: 8.5%
12,COc1cccc(C2CC(=O)Nc3cc(OC)c(OC)c(OC)c32)c1OC(C)C (configuration not stated),inactive: 9.27%
13,N#Cc1nc(-c2ccc(COc3ccccc3)o2)oc1NCc1cccnc1,inactive: -3.68%
14,COc1ccccc1CN1CCC(CNS(=O)(=O)c2cc(-c3onc(C)c3C)ccc2OC)CC1,inactive: -2.97%
15,Cc1nn(-c2ccccc2)c(OC(=O)c2cccc(Br)c2)c1S(=O)(=O)c1ccccc1,inactive: -14.7%
16,Cc1ccc(-c2nnc(Nc3ccc(Br)cc3)c3ccccc23)cc1S(=O)(=O)NCC1CCCO1 (configuration not stated),inactive: -27.7%
17,Cc1nc(N2CCCC2)c2c(C(=O)N3CCN(c4ccc(F)cc4)CC3)c(C)oc2n1,inactive: -18.9%
18,COC(=O)c1ccc(OCC2c3cc(OC)c(OC)cc3CCN2C(=O)c2ccccc2C)cc1 (configuration not stated),inactive: -2.88%
19,COc1ccccc1N1CCN(CCCCNC(=O)c2ccc3ccccc3c2)CC1,inactive: -6.46%
20,CC(=O)Oc1ccc(C2(c3ccc(OC(C)=O)cc3)C(=O)Nc3ccccc32)cc1,inactive: -11.2%
21,CCc1cccc(CC)c1NC(=O)c1c(C)oc2ccc(O)c(CN3CCN(C)CC3)c12,inactive: 6.25%
